Experimental data as given in the RNAGym collection of RNA variant scans (doi:10.1093/nar/gkz1192).
Read counts are not given, so values of variants with three or more changes are uncertain.

B1: CPEB3 Ribozyme (parent)
chain: UAACAGGGGGCCACAGCAGAAGCGUUCACGUCGCAGCCCCUGUCAGAUUCUGGUGAAUCUGCGAAUUCUGCUGUAUAUCUC

Variants of: B1
Experiment: self-cleavage, relative activity (ratio to wild type); higher = more cleavage; in vitro, sequencing
Method in brief: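 Relative activity was defined as the cleaved/total read fraction for a variant divided by the same fraction for the unmutated ribozyme. CPEB3 self-cleaving ribozyme libraries were made by rounds of error-prone PCR, barcoded, and transcribed in vitro with T7 RNA polymerase for 5 hours at 37°C, and cleavage ran through transcription plus a 15 min DNase I step before EDTA. Illumina sequencing of template-switched reverse transcripts gave the reads, and DNA sequencing mapped the barcodes. Averages come from three batches, using variants with at least 5 reads.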

Variant	self-cleavage
A13U U41A G52A U72A U78C	0.07
A13U U25C A45G U69A U78C	0.09
C14U G19C U67A U78A U80C	0.2
C14U U26C U49A	0.55
A13U U25A U31C	0.06
A13U U26C A64G U74C	0.45
C14U A18G G46U U67C U74A	0.03
A13U U26C U43A U69C U72C U74A U78A	0.06
A15C A28G A35G A64G	0.27
C14A U48C U54A U80C	0.92
A15C A21C U41C	0.2
C14U A18C C32U A64G U72G	0.02
C14U U54G A57G U80C	0.48
C14U A15U C17U U25C U66A U67A	0.06
C14A U26C C32U	0.38
A13U U48C U54C A64G U74C	0.46
A13U U49A G63A U72A	0.34
A13U U26A G30A U76C	0.21
A13U U41C A65G U66A	0.29
A13U U43A U58C U60A A75G	0.4
A13U U31C U41C U72C	0.86

Variant	self-cleavage
A15C A45G U54C	0.4
A13U U41C A57G	1.18
C14U A18C U58C C79G	0.25
A13U U54C U60C U67C	0.19
C14U G24U A35U U72A	0.07
A13U U60A U72A U80A	0.35
A13U U25C U49A U51A U74C U78C	0.2
A13U U41A C62U	0.17
C14U A15G U80A	1.27
C14A A18U A45U A57G	0.21
A13U U58C U67C	0.4
A13U U60C A65G	0.35
A13U U31A G33A	0.19
A13U G46U A56G A65U	0.13
A13U U25C U26C U54A U69C U80C	0.1
C14U U31A A45C U60A A65G	0.06
A13U U26C U43C A45U	0.4
A13U U26C U69C	0.12
A15C A21G G33A A35G A64U U76C A77U	0.06
A13U G24A U41C U80C	0.33
C14U U41C A56G	1.22

Variant	self-cleavage
C14A U25C A57G	0.21
A13U U26C G53A A57G U74C	0.59
C14U C32U U43C U72C A77G	0.17
C14U U26C G36A U48C U80C	0.29
C14A U43C U49A	0.29
A13U G36A U54G	0.15
A13U U48C U60C U72A	0.12
C14U A20U A35G U41A	0.07
A13U U48C A56G A64G U80C	0.5
A13U U48C U60A	0.14
A13U U25C U72C	0.26
A13U U25A G36U	0.16
A15C A20U C34G C68A	0.02
A13U U41A A45G U60C	0.28
C14A G19A U43A A56G U69C U76A U80A	0.08
C14U U26C C29G A35G U72A	0.11
C14U C59U U74A	1.25
C14U C17U U41G U51G A57G U76C	0.04
C14U A21G A28G	0.23
A13U U25C U80A	0.1
C14U A45C A77G U78C	0.11

Variant	self-cleavage
C14G A15G G30U U43C U49C U80C	0.19
C14U A20G U41C	0.93
C14U A20G U25A	0.16
A13U U25C U26G C39A U41C U60A U72C	0.03
A13U U60C A64G A75U U80A	0.32
C14U A28G C39U U41A U78C	0.13
C14U A15U C32U U60C U67C	0.06
A13U U48C U78C	0.59
A13U U31C U48C U49A	0.24
A13U U41C C44U U76A	0.26
C14A A21U U43C A57U U72C	0.06
C14U A56G U67C	0.19
A13U U26C C62G	0.11
A13U U25C A56G U69G	0.22
A15C A45G U76A	0.8
A13U U69C U76A A77G	0.75
C14G A28G A45U U48C U51A U54G U74C	0.04
A13U U43A U72C	1.12
A13U U31A G61A C68A	0.11
C14A A45G U51C U69A	0.34
C14A U49C U58C U74A	0.07
